Results published in PubChem BioAssay AID588591 (National Center for Advancing Translational Sciences (NCATS), 2011).
The whole screen tested about 390,000 compounds, of which about 4,700 (1.2%) were called active. Roughly 4% stayed inconclusive and do not appear here. Calls come from the whole dose curve; as a rule, active = well fitted inhibition curve with a large enough effect; inconclusive = small, poorly fitted or top-dose-only effect, or another doubt; inactive = no such curve, though single readings can be large or run the other way. This is a selection; strong and weak results do not stand in their true shares. A structure can be active in one record and inactive in another.

target: DNA polymerase eta (Homo sapiens) (UniProt Q9Y253); assay: qHTS for Inhibitors of Polymerase Eta; conditions: recombinant Pol eta, fluorescent DNA replication assay; series mostly up to 114 µM; activity change, negative = inhibition: at the top concentration
Sequence of UniProt Q9Y253 (Q9Y253 whole entry, looked up): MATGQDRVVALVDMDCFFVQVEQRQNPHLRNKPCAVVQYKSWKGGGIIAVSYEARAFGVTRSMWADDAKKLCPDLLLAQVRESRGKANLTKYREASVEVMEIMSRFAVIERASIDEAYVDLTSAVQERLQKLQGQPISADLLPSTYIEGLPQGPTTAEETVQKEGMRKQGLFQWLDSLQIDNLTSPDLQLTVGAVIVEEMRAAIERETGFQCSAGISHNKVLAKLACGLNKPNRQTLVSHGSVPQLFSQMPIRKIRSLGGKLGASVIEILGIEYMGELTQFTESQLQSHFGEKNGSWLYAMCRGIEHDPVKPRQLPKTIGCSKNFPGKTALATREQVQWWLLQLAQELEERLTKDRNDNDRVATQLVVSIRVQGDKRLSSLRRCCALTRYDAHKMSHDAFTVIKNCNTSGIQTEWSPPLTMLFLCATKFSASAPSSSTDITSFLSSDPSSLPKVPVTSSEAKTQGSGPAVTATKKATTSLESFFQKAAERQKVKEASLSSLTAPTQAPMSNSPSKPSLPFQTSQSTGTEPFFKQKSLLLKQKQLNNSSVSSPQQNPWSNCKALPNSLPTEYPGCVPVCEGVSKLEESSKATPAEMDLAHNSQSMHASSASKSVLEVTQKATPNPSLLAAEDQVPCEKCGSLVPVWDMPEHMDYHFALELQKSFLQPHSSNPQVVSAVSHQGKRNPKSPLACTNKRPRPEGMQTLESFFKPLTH
Method in brief: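 Pol eta (10 nM) was preincubated with compounds for 15 min at room temperature, after which fluorescent replication substrate (50 nM final) was added to start the reaction. Fluorescence was read kinetically at 0 and 10 min.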
% is set by controls: 0 for no effect and ±100 for the full control effect; potency is the fitted concentration of half-maximal effect.

SMILES | Potency | activity change, negative = inhibition
Cc1cc(=O)n(CC(=O)NC(C)c2ccccc2)c2c1c(C)nn2C (configuration not stated) | active: 39.8 µM | –
CCOc1ccccc1N(C(=O)CNC(=O)c1ccco1)C(C(=O)NC1CCCC1)c1cccnc1 (configuration not stated) | – | inactive: 10.4%
Cc1ccc(C)c(N2CCN(C(=O)c3nn(C)c4c3CS(=O)(=O)c3ccccc3-4)CC2)c1 | – | inactive: -10.5%
Fc1ccc(Nc2c(-c3ccco3)nc3ccccn23)cc1 | – | inactive: -1.79%
O=C(NN1C(=O)/C(=C/c2ccc(O)c([N+](=O)[O-])c2)SC1=S)c1ccccc1Cl | – | inactive: -17.5%
Cc1ccc(-c2csc3ncnc(Nc4ccc(C(=O)O)cc4)c23)cc1 | – | inactive: -8.67%
CC(C)C[C@@H](CNCC(=O)[C@H](Cc1c[nH]c2ccccc12)NC(=O)c1[nH]cnc1C(=O)N[C@H](CN)CC(C)C)NC(=O)c1nc[nH]c1C(=O)N[C@@H](CC(=O)O)C(=O)O | active: 50.1 µM | –
COc1ccccc1NC(=O)C1=C(C)Nc2nc(SCc3cccc(F)c3)nn2C1c1ccc(C(=O)O)cc1 (configuration not stated) | – | inactive: 13.4%
COc1ccc(C(=O)Nc2nc3c(s2)Cc2cc(OC)ccc2-3)cc1 | – | inactive: 1.13%
COc1cccc(NC(=O)Cn2c(=O)n(CCC(=O)NC3CCN(Cc4ccccc4)CC3)c(=O)c3ccccc32)c1 | – | inactive: 43.9%
O=C(O)C(Cc1ccccc1)NS(=O)(=O)c1ccc2c(c1)OCCO2 (configuration not stated) | – | inactive: 6.56%
c1ccc(Cn2c(SCc3nc4ccccc4s3)nnc2-c2ccco2)cc1 | active: 14.1 µM | –
Cc1cc(C)nc(NC(=O)c2c(F)c(F)c(F)c(C(=O)Nc3cc(C)cc(C)n3)c2F)c1 | – | inactive: 45.2%
Cc1cccc(NC2=NC(C)(C)N=C(N)N2)c1C | – | inactive: 6.94%
Cc1ccc(-c2cc(-c3ccco3)c(C#N)c(=O)[nH]2)cc1 | active: 28.2 µM | –
NS(=O)(=O)c1ccc(-c2ccc(/C=N/Nc3ccc(C(=O)O)cc3)o2)cc1 | active: 28.2 µM | –
O=C(NCc1ccc(OC(F)(F)F)cc1)c1cccc2c1C(=O)c1ccc(N3CCCCC3)cc1S2(=O)=O | – | inactive: 0.241%
CC(CC(=O)Nc1ccc(Br)cc1F)S(=O)(=O)c1ccc2c(c1)NC(=O)CO2 (configuration not stated) | – | inactive: -14.6%
Cc1ccc(C2=N/C(=C/c3cccs3)C(=O)N2Nc2ccccc2)cc1 | – | inactive: 0.293%

SMILES | Potency | activity change, negative = inhibition
O=C(O)C(NS(=O)(=O)c1cccc2nsnc12)c1ccccc1 (configuration not stated) | – | inactive: 45.6%
Cc1c(N2C(=O)/C(=C/c3ccc(N(C)C)cc3)N(C)C2=S)c(=O)n(-c2ccccc2)n1C | – | inactive: -21%
Cc1ccc(NC(=O)CSc2nc3c([nH]c4ccccc43)c(=O)n2-c2ccccc2)c(C)c1 | – | inactive: 17.1%
CCCCn1c(NCc2ccc(N(C)C)cc2)nc2ccccc21 | – | inactive: -9.12%
CCCc1[nH]n(-c2nc3ccccc3s2)c(=O)c1C=NCCCOC | – | inactive: 33%
O=C(O)/C(=C\c1ccco1)NC(=O)c1ccccc1 | – | inactive: 3.22%
O=C(CSc1nnc(CNc2ccc(Cl)cc2)o1)Nc1nc2ccccc2s1 | – | inactive: -5.26%
Cc1ccccc1C(=O)Nc1ccc2c(c1)CCCN2C(=O)c1cccs1 | – | inactive: -16.3%
CC(=O)C[C@@H](O)CC(=O)[C@H]1OC(=O)[C@@H](C)C/C=C\Cc2ccccc21 | – | inactive: -22.6%
O=C(Cc1cccs1)NC1CC(=O)N(c2ccc(Cl)cc2)C1 (configuration not stated) | – | inactive: 17.4%
CC(=O)N(c1c(C)n(C)n(-c2ccccc2)c1=O)C1(C(=O)NC2CCCC2)CCCCC1 | – | inactive: -12.8%
N#C/C(=C\C1=C(N2CCOCC2)C(=C/c2cccc([N+](=O)[O-])c2)/CC1)C(=O)Nc1ccccc1F | – | inactive: -27.2%
CCOc1ccc(OCC)c(Nc2nc3ccc(C(=O)c4ccccc4)cc3n3cnnc23)c1 | – | inactive: 20.1%
O=C(Nc1nncs1)C1CCCC1 | – | inactive: 39.5%
C=CC[C@@H](CC(=O)OC(C)(C)C)C(=O)OC[C@H]1CCCN1C(=O)[C@@H](CC=C)CC(=O)N(CCO)Cc1ccccc1 | – | inactive: -14.4%
O=C(O)Cc1ccc(C(=O)CSc2ccccc2)s1 | active: 20 µM | –
COc1ccc(NC(=O)/C(C#N)=C/C=C/c2ccco2)cc1 | – | inactive: -3.09%
CCO[C@@H]1OC(C(=O)N2CCN(Cc3ccc4c(c3)OCO4)CC2)=C[C@H](c2ccc(C(F)(F)F)cc2)[C@H]1CCCO | – | inactive: -17.7%
O=C(Nc1ccc(Cl)cc1)N1CCN(c2ccc3nnc(-c4ccc(F)cc4)n3n2)CC1 | – | inactive: -9.48%

SMILES | Potency | activity change, negative = inhibition
COc1ccccc1-c1ccc(/C=C2\C=CC(=O)O2)o1 | active: 25.1 µM | –
Cc1c(Cl)cccc1NS(=O)(=O)c1ccc2c(c1)C1C=CCC1C(c1ccc(C(=O)O)cc1)N2 (configuration not stated) | active: 2 µM | –
CCn1cc(C(=O)O)c(=O)c2cc(F)c(N3CCN(S(=O)(=O)c4ccc5c(c4)OCCO5)CC3)cc21 | – | inactive: 34.1%
Cc1ccc(OCC(=O)NCC(=O)OCc2cc(=O)n3nc(C(C)C)sc3n2)cc1 | – | inactive: 26.9%
CCOC(=O)c1cc(=O)c2ccc(OCC(=O)Nc3ccc(F)cc3)cc2o1 | – | inactive: 20.7%
Cc1nn(C(C)C(=O)NC2C(=O)N3C(C(=O)O)=C(CSc4nnnn4C)CSC23)cc1Cl (configuration not stated) | active: 20 µM | –
COc1ccc(CC(=O)Nc2ccc(N3CCOCC3)cc2)cc1S(=O)(=O)N1CCOCC1 | – | inactive: 30.2%
COc1ccc(NC(=O)Cc2cccs2)c(OC)c1 | – | inactive: 17.3%
COc1cc(C2N(c3ccccn3)C(=O)C3CCCN32)cc(OC)c1OC (configuration not stated) | – | inactive: -8.43%
Cc1nn(Cc2ccc(F)cc2)c(C)c1NC(=O)c1noc2c1CCc1ccccc1-2 | – | inactive: -20%
N=C1C(c2nc3ccccc3[nH]2)=C(O)CN1c1ccc(CC(=O)O)cc1 | active: 79.4 µM | –
CC(=O)c1ccc(NC(=O)CSc2nnc3c(n2)[nH]c2ccccc23)cc1 | active: 44.7 µM | –
COc1ccc(N(C)C(=O)c2oc(=O)c3ccccc3c2-c2ccc(C)cc2)c(OC)c1 | – | inactive: -6.76%
Cc1ccc(CNC(=O)CN2N=C(c3ccc(C)cc3)CCC2=O)cc1 | – | inactive: 20.1%
O=C(O)c1ccccc1Nc1cccc(OCc2ccc3ccccc3n2)c1 | – | inactive: 2.66%
CCOC(=O)c1ccccc1NC(=O)c1cn(CC)c2nc(C)ccc2c1=O | – | inactive: 38.8%
C[C@@H](NC(=O)c1cc2c([nH]c3ccccc32)c(-c2ccccc2)n1)C(=O)O | – | inactive: 10.8%
C[C@@H]1COC(=O)[C@H](NC(=O)OCC2c3ccccc3-c3ccccc32)C/C=C\C[C@@H](CC(=O)N[C@@H](CO)Cc2ccccc2)C(=O)N1 | – | inactive: -11.2%
CCCC(=O)c1cc2c(cc1NC(=O)c1ccccc1F)OCCO2 | – | inactive: -19.1%
